Reference: article PMC4336329 (PLoS ONE, 2015)
Among all 310,000 compounds or so, about 14,000 (4.5%) showed an effect of 50% or more. The effect is printed as a negative number. Some of the results follow.

Each compound was assayed against human ether-à-go-go-related gene (hERG) potassium channel (human, UniProt Q12809) (assay: primary screen, population patch clamp on CHO cells stably expressing hERG).
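Also: peak tail current of the secondary pulse compared with the same well before compound.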

Chain of human ether-à-go-go-related gene (hERG) potassium channel (Q12809 whole entry, looked up): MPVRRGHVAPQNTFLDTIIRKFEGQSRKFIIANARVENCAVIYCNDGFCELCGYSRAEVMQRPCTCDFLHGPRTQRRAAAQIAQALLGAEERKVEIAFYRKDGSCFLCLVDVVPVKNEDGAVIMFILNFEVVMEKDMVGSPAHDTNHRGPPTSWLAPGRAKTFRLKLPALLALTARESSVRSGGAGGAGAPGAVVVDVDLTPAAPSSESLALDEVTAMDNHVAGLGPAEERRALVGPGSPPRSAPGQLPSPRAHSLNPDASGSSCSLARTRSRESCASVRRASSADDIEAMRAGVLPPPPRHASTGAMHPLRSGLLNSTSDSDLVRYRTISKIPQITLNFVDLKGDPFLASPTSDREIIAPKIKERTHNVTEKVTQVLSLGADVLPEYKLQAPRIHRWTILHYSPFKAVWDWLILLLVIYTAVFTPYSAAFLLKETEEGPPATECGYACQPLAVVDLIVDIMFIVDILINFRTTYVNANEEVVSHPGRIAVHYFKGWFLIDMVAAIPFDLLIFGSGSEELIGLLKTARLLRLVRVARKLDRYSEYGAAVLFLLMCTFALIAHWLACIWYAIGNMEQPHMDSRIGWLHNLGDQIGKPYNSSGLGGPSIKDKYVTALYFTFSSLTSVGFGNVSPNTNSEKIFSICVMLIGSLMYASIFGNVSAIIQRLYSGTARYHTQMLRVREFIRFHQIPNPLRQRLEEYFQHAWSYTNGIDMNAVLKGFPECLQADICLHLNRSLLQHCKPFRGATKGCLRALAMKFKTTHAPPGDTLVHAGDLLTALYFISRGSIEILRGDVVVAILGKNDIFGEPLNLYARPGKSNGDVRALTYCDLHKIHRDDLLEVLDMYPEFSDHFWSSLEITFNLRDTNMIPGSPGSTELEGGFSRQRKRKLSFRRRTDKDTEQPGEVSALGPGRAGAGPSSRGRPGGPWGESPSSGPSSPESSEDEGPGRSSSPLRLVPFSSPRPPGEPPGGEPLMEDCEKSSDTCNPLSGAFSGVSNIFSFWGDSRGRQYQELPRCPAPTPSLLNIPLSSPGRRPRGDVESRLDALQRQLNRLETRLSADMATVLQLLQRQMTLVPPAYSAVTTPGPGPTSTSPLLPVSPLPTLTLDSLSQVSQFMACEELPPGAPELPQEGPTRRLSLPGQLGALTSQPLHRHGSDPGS

Compared with O=C(NC1CCCC1)C(c1ccncc1)N(C(=O)Cc1cccs1)c1cccc(F)c1 (stereo not drawn), COc1ccc(C(C(=O)NC2CCCCC2)N(Cc2ccco2)C(=O)c2ccccn2)c(OC)c1 (stereo not drawn) is lower in “hERG current change (%, negative = inhibition) at 10uM” value: 6.82% for the first, -4.76% for the second.

Going from COc1cc([N+](=O)[O-])ccc1NC(=O)CSc1n[nH]c(C(C)C)n1 to CCc1ccccc1NC(=O)CSc1n[nH]c(-c2cccnc2)n1, the “hERG current change (%, negative = inhibition) at 10uM” value falls from 24.6% to -14.5%.

Compared with CC(=O)Nc1c(NC(C)C)c2ccccc2oc1=O, CC(C)NC(=O)c1cc(-c2ccc(Br)cc2)on1 is lower in “hERG current change (%, negative = inhibition) at 10uM” value: 12.9% for the first, -10.1% for the second.

Going from O=C1CCCN1CCC(=O)N1CCCC(CO)(Cc2ccccc2)C1 (stereo not drawn) to O=C(c1ccco1)c1cn(CC(=O)N2CCCCCC2)c2ccccc12, the “hERG current change (%, negative = inhibition) at 10uM” value falls from 31.6% to 7.15%.

Going from CC(C)N1CCCC(CNC(=O)CCc2nnc(CCCCc3ccccc3)o2)C1 (stereo not drawn) to Nn1c(SCC(=O)NCc2ccccc2)nnc1C1CC1, the “hERG current change (%, negative = inhibition) at 10uM” value falls from 17.5% to -11.8%.

Compared with CCN(CC)S(=O)(=O)c1ccc(C(=O)Nc2nnc(C(C)C)s2)cc1, C=CCN(c1ccc(C(=O)N(CC)CC)cc1)S(C)(=O)=O is lower in “hERG current change (%, negative = inhibition) at 10uM” value: -3.69% for the first, -4.12% for the second.

Going from Fc1cc(F)c(C2SCCN2C(=S)Nc2cccc(C(F)(F)F)c2)c(F)c1 (stereo not drawn) to Fc1ccc(NC(=S)NNc2ncc(C(F)(F)F)cc2Cl)c(F)c1, the “hERG current change (%, negative = inhibition) at 10uM” value falls from 15.1% to -1.49%.

Going from Cc1cc(N=Cc2c(O)n(-c3cccc(Cl)c3)c(=O)c3ccccc23)no1 to Cc1ccc(-c2cc(C(=O)Nc3cc(C)on3)c3ccccc3n2)c(C)c1, the “hERG current change (%, negative = inhibition) at 10uM” value rises from -5.29% to 5.46%.

First: CCOC(=O)c1cnc(SC)nc1Sc1ccccc1
Second: CN(C)C(=O)c1cnc(-c2ccccc2)nc1-c1ccccc1
The “hERG current change (%, negative = inhibition) at 10uM” value of the first is lower: -16.6% for the first, 11.5% for the second.

First: COc1ccc(CC(=O)N2CCN(c3ccccc3F)CC2)cc1OC
Second: COc1ccc(C(=O)c2ccc(N3CCN(C4CC(=O)NC4=O)CC3)cc2)cc1F (stereo not drawn)
The “hERG current change (%, negative = inhibition) at 10uM” value of the first is higher: -21.1% for the first, -43.2% for the second.

Going from O=S(=O)(Cc1ccccc1)N1CCN(Cc2ccc3c(c2)OCO3)CC1 to Cc1ccc(C(c2nnnn2CC2CCCO2)N2CCN(Cc3ccccc3)CC2)cc1 (stereo not drawn), the “hERG current change (%, negative = inhibition) at 10uM” value falls from -6.28% to -74.9%.

Going from Cc1ccc(S(=O)(=O)N(Cc2ccccc2)c2ccccc2C(=O)Nc2ccccc2C(=O)NCc2ccco2)cc1 to CN(C(=O)c1ccc([N+](=O)[O-])cc1)c1ccccc1C(=O)NCc1ccccc1, the “hERG current change (%, negative = inhibition) at 10uM” value falls from 10.5% to -7.6%.

First: COc1ccc(CCNC(=O)N[C@@H](Cc2ccccc2)C(=O)O)cc1
Second: COc1ccc(CN(C)CC(=O)NC(=O)Nc2ccccc2F)cc1
The “hERG current change (%, negative = inhibition) at 10uM” value of the first is higher: 19.1% for the first, 2.87% for the second.

Going from Cc1ccc(C(=O)NCCc2nc3ccccc3[nH]2)cc1[N+](=O)[O-] to CC/C(O)=C1\C(=O)CCCC1=NCc1nc2ccccc2[nH]1, the “hERG current change (%, negative = inhibition) at 10uM” value rises from -31.8% to 1%.

First: COc1ccccc1Oc1ccc(-c2cnc3ccccc3n2)cc1[N+](=O)[O-]
Second: CCCNC(=O)c1c(N)n(-c2cccc(OC)c2)c2nc3ccccc3nc12
The “hERG current change (%, negative = inhibition) at 10uM” value of the first is higher: 23.8% for the first, -5.21% for the second.

Compared with C#CCOc1c(Br)cc(/C=C2/C(=O)ON=C2C)cc1OCC, CCOC(=O)CSc1nnc(-c2ccc3ncccc3c2)n1C is lower in “hERG current change (%, negative = inhibition) at 10uM” value: 20.3% for the first, -7.33% for the second.

First: COc1ccc(CC(=O)n2nc(-c3cccnc3)nc2N)cc1
Second: COc1ccc(N2C(=O)CC(N(Cc3ccc(S(N)(=O)=O)cc3)C(C)=O)C2=O)cc1 (stereo not drawn)
The “hERG current change (%, negative = inhibition) at 10uM” value of the first is lower: 6.03% for the first, 7.69% for the second.

First: O=C(Nc1cccc([N+](=O)[O-])c1)ONC1=NCCCCC1
Second: O=C(Nc1nnc(Cc2ccc([N+](=O)[O-])cc2)s1)c1ccc2c(c1)OCO2
The “hERG current change (%, negative = inhibition) at 10uM” value of the first is lower: -9.32% for the first, 3.6% for the second.

Compared with COc1ccc(-n2c(SCC(=O)N3CCOCC3)nc(O)cc2=O)cc1, Cn1c(SCC(=O)N2CCCC2=O)nc2ccccc21 is higher in “hERG current change (%, negative = inhibition) at 10uM” value: 19.1% for the first, 28.2% for the second.

First: COC(=O)c1c(-c2ccccc2)csc1N1C(=O)Nc2ccccc2N1O
Second: CC1(C)C(=O)Nc2ccccc2N1C(=O)COc1ncnc2ccccc12
The “hERG current change (%, negative = inhibition) at 10uM” value of the first is higher: 2.61% for the first, -1.28% for the second.

First: C/C(=N/NC(N)=S)c1ccccc1[N+](=O)[O-]
Second: Cn1nnc(NC(=S)NC(=O)c2cccc3c(Cl)cccc23)n1
The “hERG current change (%, negative = inhibition) at 10uM” value of the first is lower: 7.13% for the first, 26.8% for the second.

Compared with COC(=O)c1ccc(-c2csc(NC(=O)c3ccc(S(=O)(=O)N4CCc5ccccc5C4)cc3)n2)cc1, Cc1ccc(C(=O)OC(C)C(=O)Nc2ccc(S(N)(=O)=O)cc2)cc1S(=O)(=O)N1CCOCC1 (stereo not drawn) is lower in “hERG current change (%, negative = inhibition) at 10uM” value: 1.75% for the first, -2.9% for the second.

First: CN=C1NN=C(c2cc(C)n(-c3ccc(Cl)cc3)c2C)CS1
Second: Cc1cc(C(=O)CN2CCCCC2)c(C)n1-c1ccc(F)cc1
The “hERG current change (%, negative = inhibition) at 10uM” value of the first is higher: 11.9% for the first, -6.55% for the second.

Going from Cc1nn(C)c(Cl)c1CN1CCC(CO)(CCOc2ccccc2)CC1 to CCC1CCCCN1CCCNC(=O)CCNC(=O)Cn1cnc2ccccc2c1=O (stereo not drawn), the “hERG current change (%, negative = inhibition) at 10uM” value rises from -54.7% to -0.683%.

Compared with Cc1ccnc(SCCn2c(Br)nc3c2c(=O)[nH]c(=O)n3C)n1, CCOc1ccc(NC(=O)CSc2nnc(-c3ccco3)n2N)cc1 is lower in “hERG current change (%, negative = inhibition) at 10uM” value: -9.85% for the first, -13.8% for the second.

Going from CC(OC(=O)CN1C(=O)NC2(CCCC2)C1=O)c1ccc(F)cc1 (stereo not drawn) to O=C(CN1C(=O)S/C(=C\C=C\c2ccccc2)C1=O)N1CCCCC1, the “hERG current change (%, negative = inhibition) at 10uM” value rises from -16.9% to 10.8%.

Going from COc1ccc(CCNC(=S)Nc2ccc(OC)cc2)cc1 to CCc1cccc(CC)c1NC(=S)NCCc1ccc(O)c(O)c1, the “hERG current change (%, negative = inhibition) at 10uM” value falls from -5.46% to -11.3%.

Going from COc1ccc(C(=O)NC(=S)SCC(=O)O)cc1 to O=C(O)CSCc1ccc(C(=O)O)o1, the “hERG current change (%, negative = inhibition) at 10uM” value rises from 21.8% to 27.2%.

Compared with O=C1N=c2ccccc2=C1c1sc(NS(=O)(=O)Cc2ccccc2)nc1O, O=C1c2ccccc2CN1C(CO)c1ccccc1 (stereo not drawn) is higher in “hERG current change (%, negative = inhibition) at 10uM” value: 8.85% for the first, 16.9% for the second.

Going from CCOC(=O)C(NC(C)=O)C(=O)O (stereo not drawn) to CCCCCOC(=O)C(C)c1c(C)[nH]c(=S)[nH]c1=O (stereo not drawn), the “hERG current change (%, negative = inhibition) at 10uM” value falls from 14.2% to 5.91%.

Compared with CCOC(=O)c1c(OCCO)noc1N, CCOC(=O)C1=C(N)c2ccccc2CC1C1CCCC1 (stereo not drawn) is lower in “hERG current change (%, negative = inhibition) at 10uM” value: 16.6% for the first, 15.9% for the second.

Compared with CC(=O)c1coc2ccc(OCC(=O)O)cc12, O=C(O)c1cccc(C(=O)c2cccc3ccccc23)c1 is higher in “hERG current change (%, negative = inhibition) at 10uM” value: -6.05% for the first, 0.874% for the second.

First: COc1ccc(Cl)cc1NC(=O)COC(=O)c1ccc(Cl)nc1
Second: COc1ccc(NC(=O)c2cccc(OC(F)F)c2)cc1Cl
The “hERG current change (%, negative = inhibition) at 10uM” value of the first is lower: -36.4% for the first, -22.2% for the second.

First: CN(C(=O)CSc1nc(-c2ccc(C(C)(C)C)cc2)c(C#N)c(=O)[nH]1)C1CCCCC1
Second: Cc1ccc2nc(/C(C#N)=C\c3ccc(N4CCCCC4)c([N+](=O)[O-])c3)[nH]c2c1
The “hERG current change (%, negative = inhibition) at 10uM” value of the first is higher: 14.9% for the first, 4.79% for the second.

Going from c1ccc(-c2nnc3sc(-c4csc5c4CCCC5)nn23)cc1 to Cc1ccc(Sc2cc(N3CCOCC3)nc(-c3ccccc3)n2)cc1, the “hERG current change (%, negative = inhibition) at 10uM” value falls from 5.9% to -7.23%.

First: Cc1ccc(C)c(OCCC(=O)OCC(=O)NC2CCS(=O)(=O)C2)c1 (stereo not drawn)
Second: Cc1cc(C(=O)Cn2nc(C(=O)O)c3ccccc3c2=O)c(C)n1C1CC1
The “hERG current change (%, negative = inhibition) at 10uM” value of the first is higher: -3.37% for the first, -13.6% for the second.

Compared with Cc1ccc(-c2c3c(=O)n(C)c(=O)n(C)c3cn2CCCN2CCOCC2)cc1, CC(=O)Nc1ccc(C2NC(=S)N(c3ccccc3C(F)(F)F)C(C)=C2C(=O)N2CCOCC2)cc1 (stereo not drawn) is higher in “hERG current change (%, negative = inhibition) at 10uM” value: 10.5% for the first, 12.9% for the second.

Going from Cc1c(C(=O)O)c2cc(O)ccc2n1-c1ccccc1 to CC(=O)c1cn(CC(=O)NCCc2c[nH]c3ccccc23)c2ccccc12, the “hERG current change (%, negative = inhibition) at 10uM” value rises from -6.65% to -0.922%.

Compared with CC1CCCCN1C(=O)CSc1nnc(-c2cccnc2)o1 (stereo not drawn), O=C1CCC(C(=O)N2CCCCO2)CN1Cc1ccc(Cl)cc1 (stereo not drawn) is lower in “hERG current change (%, negative = inhibition) at 10uM” value: 8.03% for the first, -2.61% for the second.

Compared with COc1cc(OC)cc(C(=O)n2nc(C)cc2C)c1, COc1cc(OC)c2c(c1)C(=O)c1cc(OC)cc(OC)c1C2=O is higher in “hERG current change (%, negative = inhibition) at 10uM” value: 3.24% for the first, 10.9% for the second.

First: Cc1cc(=S)cc(C)n1CCCn1ccnc1
Second: Cc1cccc(N2CCN(C(=O)c3cc4n(n3)C(C(F)(F)F)CC(c3ccco3)N4)CC2)c1C (stereo not drawn)
The “hERG current change (%, negative = inhibition) at 10uM” value of the first is lower: -1.53% for the first, 25.4% for the second.

First: CC(=O)N1CCN(c2ccc(NC(=O)c3ccc(F)cc3)cc2)CC1
Second: CCOc1ccc(C2N(c3ccc(F)cc3)C(=O)C3CCCN32)cc1OC (stereo not drawn)
The “hERG current change (%, negative = inhibition) at 10uM” value of the first is lower: -57.7% for the first, -10.8% for the second.

Compared with CC(NC(=O)c1cccc(Cl)c1)C1CC2CCC1C2 (stereo not drawn), O=C(c1ccccc1)c1nc[nH]c1C(=O)Nc1ccccc1 is higher in “hERG current change (%, negative = inhibition) at 10uM” value: -0.901% for the first, 0.367% for the second.

Going from Cc1cc(Cl)c(S(=O)(=O)Nc2ccc3c(c2)OCCO3)cc1OCC(N)=O to CCOC(=O)c1ccc(NC2c3ccccc3C(=O)N2c2ccccn2)cc1 (stereo not drawn), the “hERG current change (%, negative = inhibition) at 10uM” value rises from -3.59% to 9.93%.

First: Cl.NC(N)=NC(N)=NCCc1ccccc1
Second: CCCN(CC1CCCO1)C(=O)CCc1nnc(-c2cc(C)on2)o1 (stereo not drawn)
The “hERG current change (%, negative = inhibition) at 10uM” value of the first is higher: 17% for the first, 15.6% for the second.
